Binding signal data for 31 molecules are collected here from article PMC9911399, “Two distinct binding modes provide the RNA-binding protein RbFox with extraordinary sequence specificity”.

Residue numbers refer to the chain shown, from its start. Some of the results follow.

The chains are these.
T1: RBFOX1 RRM RbFoxmut (Fox-RRM*) (Homo sapiens, UniProt Q9NWB1 109-208, R118D;E147R;N151S;E152T)
T1 sequence: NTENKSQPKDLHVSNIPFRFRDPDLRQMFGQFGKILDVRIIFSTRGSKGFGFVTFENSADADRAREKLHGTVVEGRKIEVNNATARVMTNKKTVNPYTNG

B1: CUGCAUG (DNA:RNA)
RNA: GGGAGACCGGAAUUCAGAUUGUCCCUGCAUGUUAAAUCCCGUCGUAGCCACCA
DNA 1: CAATCTGAATTCCGGTCTCCC
DNA 2: TGGTGGCTACGACGGGATT
B2: CCUAAAA (DNA:RNA)
RNA: B1 RNA with U26C, G27U, C28A, U30A, G31A
DNA 1: CAATCTGAATTCCGGTCTCCC
DNA 2: TGGTGGCTACGACGGGATT
B3: GCGGCCC (DNA:RNA)
RNA: B1 RNA with C25G, U26C, C28G, A29C, U30C, G31C
DNA 1: CAATCTGAATTCCGGTCTCCC
DNA 2: TGGTGGCTACGACGGGATT
B4: AUACGGU (DNA:RNA)
RNA: B1 RNA with C25A, G27A, A29G, U30G, G31U
DNA 1: CAATCTGAATTCCGGTCTCCC
DNA 2: TGGTGGCTACGACGGGATT
B5: GCAAAAC (DNA:RNA)
RNA: B1 RNA with C25G, U26C, G27A, C28A, U30A, G31C
DNA 1: CAATCTGAATTCCGGTCTCCC
DNA 2: TGGTGGCTACGACGGGATT
B6: GAUACCU (DNA:RNA)
RNA: GGGAGACCGGAAUUCAGAUUGUCCGAUACCUUUAAAUCCCGUCGUAGCCACCA
DNA 1: CAATCTGAATTCCGGTCTCCC
DNA 2: TGGTGGCTACGACGGGATT
B7: UAGCAUU (DNA:RNA)
RNA: B1 RNA with C25U, U26A, G31U
DNA 1: CAATCTGAATTCCGGTCTCCC
DNA 2: TGGTGGCTACGACGGGATT
B8: AAGUGAA (DNA:RNA)
RNA: B1 RNA with C25A, U26A, C28U, A29G, U30A, G31A
DNA 1: CAATCTGAATTCCGGTCTCCC
DNA 2: TGGTGGCTACGACGGGATT
B9: GAGAGCC (DNA:RNA)
RNA: B6 RNA with U27G, C29G, U31C
DNA 1: CAATCTGAATTCCGGTCTCCC
DNA 2: TGGTGGCTACGACGGGATT
B10: UGCUCCG (DNA:RNA)
RNA: B6 RNA with G25U, A26G, U27C, A28U, U31G
DNA 1: CAATCTGAATTCCGGTCTCCC
DNA 2: TGGTGGCTACGACGGGATT
B11: CUGCUAG (DNA:RNA)
RNA: B1 RNA with A29U, U30A
DNA 1: CAATCTGAATTCCGGTCTCCC
DNA 2: TGGTGGCTACGACGGGATT
B12: GCGCCAU (DNA:RNA)
RNA: B6 RNA with A26C, U27G, A28C, C30A
DNA 1: CAATCTGAATTCCGGTCTCCC
DNA 2: TGGTGGCTACGACGGGATT
B13: UCUCAAU (DNA:RNA)
RNA: B1 RNA with C25U, U26C, G27U, U30A, G31U
DNA 1: CAATCTGAATTCCGGTCTCCC
DNA 2: TGGTGGCTACGACGGGATT
B14: CCAGGCA (DNA:RNA)
RNA: B1 RNA with U26C, G27A, C28G, A29G, U30C, G31A
DNA 1: CAATCTGAATTCCGGTCTCCC
DNA 2: TGGTGGCTACGACGGGATT
B15: UACAAGC (DNA:RNA)
RNA: B6 RNA with G25U, U27C, C29A, C30G, U31C
DNA 1: CAATCTGAATTCCGGTCTCCC
DNA 2: TGGTGGCTACGACGGGATT
B16: GCGGGUC (DNA:RNA)
RNA: B1 RNA with C25G, U26C, C28G, A29G, G31C
DNA 1: CAATCTGAATTCCGGTCTCCC
DNA 2: TGGTGGCTACGACGGGATT
B17: AUUACAA (DNA:RNA)
RNA: B6 RNA with G25A, A26U, C30A, U31A
DNA 1: CAATCTGAATTCCGGTCTCCC
DNA 2: TGGTGGCTACGACGGGATT
B18: GCCAUAG (DNA:RNA)
RNA: B6 RNA with A26C, U27C, C29U, C30A, U31G
DNA 1: CAATCTGAATTCCGGTCTCCC
DNA 2: TGGTGGCTACGACGGGATT
B19: AUGGCAA (DNA:RNA)
RNA: B1 RNA with C25A, C28G, A29C, U30A, G31A
DNA 1: CAATCTGAATTCCGGTCTCCC
DNA 2: TGGTGGCTACGACGGGATT
B20: AGGUGGU (DNA:RNA)
RNA: B1 RNA with C25A, U26G, C28U, A29G, U30G, G31U
DNA 1: CAATCTGAATTCCGGTCTCCC
DNA 2: TGGTGGCTACGACGGGATT
B21: GUAGUAU (DNA:RNA)
RNA: B6 RNA with A26U, U27A, A28G, C29U, C30A
DNA 1: CAATCTGAATTCCGGTCTCCC
DNA 2: TGGTGGCTACGACGGGATT
B22: AUCUUUC (DNA:RNA)
RNA: B1 RNA with C25A, G27C, C28U, A29U, G31C
DNA 1: CAATCTGAATTCCGGTCTCCC
DNA 2: TGGTGGCTACGACGGGATT
B23: AGGAUAU (DNA:RNA)
RNA: B6 RNA with G25A, A26G, U27G, C29U, C30A
DNA 1: CAATCTGAATTCCGGTCTCCC
DNA 2: TGGTGGCTACGACGGGATT
B24: GGGUUUG (DNA:RNA)
RNA: B1 RNA with C25G, U26G, C28U, A29U
DNA 1: CAATCTGAATTCCGGTCTCCC
DNA 2: TGGTGGCTACGACGGGATT
B25: GAUGGAU (DNA:RNA)
RNA: B6 RNA with A28G, C29G, C30A
DNA 1: CAATCTGAATTCCGGTCTCCC
DNA 2: TGGTGGCTACGACGGGATT
B26: UCCGGUC (DNA:RNA)
RNA: B1 RNA with C25U, U26C, G27C, C28G, A29G, G31C
DNA 1: CAATCTGAATTCCGGTCTCCC
DNA 2: TGGTGGCTACGACGGGATT
B27: AGGCCCC (DNA:RNA)
RNA: B1 RNA with C25A, U26G, A29C, U30C, G31C
DNA 1: CAATCTGAATTCCGGTCTCCC
DNA 2: TGGTGGCTACGACGGGATT
B28: UCAAUUA (DNA:RNA)
RNA: B1 RNA with C25U, U26C, G27A, C28A, A29U, G31A
DNA 1: CAATCTGAATTCCGGTCTCCC
DNA 2: TGGTGGCTACGACGGGATT
B29: CGCUCUA (DNA:RNA)
RNA: B1 RNA with U26G, G27C, C28U, A29C, G31A
DNA 1: CAATCTGAATTCCGGTCTCCC
DNA 2: TGGTGGCTACGACGGGATT
B30: UACUACC (DNA:RNA)
RNA: B6 RNA with G25U, U27C, A28U, C29A, U31C
DNA 1: CAATCTGAATTCCGGTCTCCC
DNA 2: TGGTGGCTACGACGGGATT
B31: ACGCACU (DNA:RNA)
RNA: B1 RNA with C25A, U26C, U30C, G31U
DNA 1: CAATCTGAATTCCGGTCTCCC
DNA 2: TGGTGGCTACGACGGGATT

For this assay, the target named is T1, RBFOX1 RRM RbFoxmut (Fox-RRM*). Briefly: EMSA; HiTS-Eq, 1 nM pool, 10 min; buffer printed only for the single-RNA assays: 10 mM Tris pH 7.5, 150 mM NaCl, 3.4 mM EDTA, 0.001% NP-40, 30 C. Particulars: tags: His6 N-terminal (pET28a); label: 5' 32P. The essentials:
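Purified RbFox RRM, wild type or mutant, was incubated for 10 min in 50 µL with 1 nM of a 5′-radiolabelled RNA pool carrying 7 randomized nucleotides, whose flanks were annealed to DNA oligonucleotides, over a series of increasing protein concentrations. Unbound RNA was resolved on 8% native PAGE, cut out, reverse-transcribed, barcoded by PCR and sequenced on an Illumina HiSeq 2500. Relative association constants were derived from changes in read counts for each RNA species versus the control reaction and normalised to the cognate motif.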
(In EMSA bound probe runs differently from free probe, usually more slowly.)
For the molecule B1, the binding signal was 1.34 KA relative to UGCAUGU.

Turning to B2, the binding signal was 0.0857 KA relative to UGCAUGU.

As for B3, the binding signal is 0.0784 KA relative to UGCAUGU.

For B4, the binding signal was 0.0993 KA relative to UGCAUGU.

On to B5, for which the binding signal was 0.0578 KA relative to UGCAUGU.

Consider B6, for which the binding signal is 0.0732 KA relative to UGCAUGU.

Take B7: the binding signal was 0.0725 KA relative to UGCAUGU.

Consider B8, for which the binding signal is 0.11 KA relative to UGCAUGU.

In the case of B9, the binding signal is 0.11 KA relative to UGCAUGU.

With B10, the binding signal is 0.0695 KA relative to UGCAUGU.

In the case of B11, the binding signal is 0.139 KA relative to UGCAUGU.

Consider B12, for which the binding signal is 0.0811 KA relative to UGCAUGU.

For the molecule B13, the binding signal is 0.0562 KA relative to UGCAUGU.

Regarding B14, the binding signal was 0.152 KA relative to UGCAUGU.

With B15, the binding signal is 0.0384 KA relative to UGCAUGU.

Take B16: the binding signal was 0.191 KA relative to UGCAUGU.

Consider B17, for which the binding signal is 0.056 KA relative to UGCAUGU.

Turning to B18, the binding signal was 0.107 KA relative to UGCAUGU.

Take B19: the binding signal was 0.0904 KA relative to UGCAUGU.

With B20, the binding signal was 0.146 KA relative to UGCAUGU.

Turning to B21, the binding signal was 0.184 KA relative to UGCAUGU.

Regarding B22, the binding signal is 0.0643 KA relative to UGCAUGU.

B23: the binding signal was 0.106 KA relative to UGCAUGU.

With B24, the binding signal is 0.741 KA relative to UGCAUGU.

For the molecule B25, the binding signal was 0.0887 KA relative to UGCAUGU.

In the case of B26, the binding signal was 0.101 KA relative to UGCAUGU.

As to B27, the binding signal was 0.057 KA relative to UGCAUGU.

B28: the binding signal was 0.098 KA relative to UGCAUGU.

Take B29: the binding signal is 0.0927 KA relative to UGCAUGU.

In the case of B30, the binding signal was 0.0724 KA relative to UGCAUGU.

Regarding B31, the binding signal is 0.0999 KA relative to UGCAUGU.
